Experimental data reported in the CheMixHub viscosity set.
Values joined by “and” are separate entries in the source; they are usually repeats but may differ in a detail not shown here. Equal values may be shown once. This continues a long series; more values of the same kind are listed elsewhere.

Legend:
[1] = xn = mol fraction of the nth substance listed

CN(C)C=O
viscosity
Conditions | 293.15 K | 298 K | 298.15 K | 303.15 K | 308.15 K | 313.15 K | 318.15 K | 323.15 K
100 kPa | 0.867 mPa·s | – | 0.813 mPa·s | 0.764 mPa·s | 0.717 mPa·s | – | 0.663 mPa·s | 0.63 mPa·s
101 kPa | 0.863 mPa·s and 0.854 mPa·s | – | 0.802 mPa·s and 0.808 mPa·s | 0.733 mPa·s and 0.7566 mPa·s | 0.7217 mPa·s and 0.7171 mPa·s | 0.6831 mPa·s and 0.64 mPa·s | 0.646 mPa·s and 0.597 mPa·s and 0.6423 mPa·s | 0.6128 mPa·s and 0.6093 mPa·s
101.3 kPa | – | 0.796 mPa·s | 0.8024 mPa·s and 0.92 mPa·s | – | – | – | – | –
101.33 kPa | – | – | 0.796 mPa·s and 0.802 mPa·s and 0.802 mPa·s | 0.7675 mPa·s and 0.737 mPa·s and 0.7485 mPa·s | 0.722 mPa·s | 0.671 mPa·s and 0.6683 mPa·s | 0.635 mPa·s and 0.633 mPa·s | 0.6004 mPa·s

OCCOCCOCCO + CN(C)C=O
[1], 318.15 K, 101 kPa
Conditions | viscosity [mPa·s]
x1 = 0.1726 | 1.38
x1 = 0.2077 | 1.59
x1 = 0.245 | 1.85
x1 = 0.2848 | 2.14
x1 = 0.3274 | 2.5
x1 = 0.373 | 2.92
x1 = 0.422 | 3.44
x1 = 0.4748 | 4.11
x1 = 0.5318 | 4.91
x1 = 0.5935 | 5.85
x1 = 0.6607 | 7.08
x1 = 0.7339 | 8.59
x1 = 0.8141 | 10.5
x1 = 0.9024 | 13

OCCOCCOCCO + CS(C)=O
[1], 318.15 K, 100 kPa
Conditions | viscosity [mPa·s]
x1 = 0.1822 | 2.82
x1 = 0.2192 | 3.19
x1 = 0.2575 | 3.59
x1 = 0.3003 | 4.08
x1 = 0.3422 | 4.58
x1 = 0.3888 | 5.16
x1 = 0.4385 | 5.84
x1 = 0.4915 | 6.58
x1 = 0.5521 | 7.49
x1 = 0.6114 | 8.41
x1 = 0.6754 | 9.46
x1 = 0.7463 | 10.7
x1 = 0.8233 | 12.1
x1 = 0.9083 | 13.6

O=[N+]([O-])[O-].[Na+] + O
viscosity [mPa·s], [1]
Conditions | 298.15 K | 323.15 K
100 kPa, x1 = 0.00475 | 0.9042 | 0.5613
100 kPa, x1 = 0.00898 | 0.9164 | 0.5738
100 kPa, x1 = 0.0118 | 0.9256 | 0.5817
100 kPa, x1 = 0.02481 | 0.9737 | 0.6151
100 kPa, x1 = 0.03655 | – | 0.6616
100 kPa, x1 = 0.0509 | 1.139 | 0.7283
100 kPa, x1 = 0.08286 | 1.43 | 0.8995
100 kPa, x1 = 0.1015 | 1.629 | 1.022
101.33 kPa, x1 = 0.000905 | – | 0.5655
101.33 kPa, x1 = 0.002718 | – | 0.5705
101.33 kPa, x1 = 0.00453 | – | 0.5784
101.33 kPa, x1 = 0.006344 | – | 0.5858
101.33 kPa, x1 = 0.008159 | – | 0.5986

OCCOCCOCCO + O
[1], 308.15 K, 101.33 kPa
Conditions | viscosity [mPa·s]
x1 = 0.5032 | 17.45
x1 = 0.5991 | 19.29
x1 = 0.6914 | 20.45
x1 = 0.7941 | 21.78
